Lines with a small IC50 respond at low doses; where the fit passes the top or lowest dose, that dose stands as a limit. AUC is the area under the same curve over the 256-fold range up to the top dose, as a fraction; it is 1 without any effect and falls as sensitivity rises. For some assays here: Where the top dose is marked as inferred, it was derived from the fitted curves, not read from the paper. For some assays here: Where an entry number is given, a second screen of the drug exists; the two often differ.
Key:
Assay in all cases: Viability of human cancer cell lines after 72 h of drug (GDSC screen)
[1] = compound: C[C@@H](N)c1ccc(C(=O)Nc2ccnc3[nH]ccc23)cc1 [Y-39983]; conditions: top dose 20 µM; top dose inferred
Procedure: (§1)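 Human cancer cell lines in 384-well plates, medium with 10% serum, drug for 72 h over a 256-fold dose range (nine 2-fold or five 4-fold steps up to the top dose). Adherent lines were fixed and stained with the nucleic acid dye Syto60, suspension lines read with resazurin; signal relative to control wells, capped at 0 and 100%. One two-parameter sigmoid per drug and line, fitted in a mixed model over all curves with the slope shared within a line.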

[2] = compound: CC(C)CC(=O)Nc1n[nH]c2c1CN(C(=O)C1CCN(C)CC1)C2(C)C [PHA-793887]; conditions: top dose 10.24 µM
Procedure: as §1

[3] = compound: CCc1nc(N)nc(N)c1-c1ccc(Cl)cc1 [Pyrimethamine]; conditions: top dose 20 µM; top dose inferred
Procedure: as §1

[4] = compound: C/C(=C\c1csc(C)n1)[C@@H]1C[C@@H]2O[C@]2(C)CCC[C@H](C)[C@H](O)[C@@H](C)C(=O)C(C)(C)[C@@H](O)CC(=O)O1 [Epothilone B]; conditions: top dose 0.032 µM; top dose inferred
Procedure: as §1

[5] = compound: CCCS(=O)(=O)Nc1ccc(F)c(C(=O)c2c[nH]c3ncc(Cl)cc23)c1F [PLX4720]; conditions: top dose 10 µM
Procedure: as §1

[6] = compound: NC(=O)Nc1sc(-c2ccc(F)cc2)cc1C(N)=O [TPCA-1]; conditions: top dose 20 µM
Procedure: as §1

[7] = compound: CN1CCN(CCOc2cc(OC3CCOCC3)c3c(Nc4c(Cl)ccc5c4OCO5)ncnc3c2)CC1 [AZD-0530]; conditions: top dose 2 µM
Procedure: as §1

[8] = screen: GDSC drug entry 1371, top dose inferred

Row | Cell Line | AUC [1] | IC50 [1] [µM] | AUC [2] | IC50 [2] [nM] | AUC [3] | IC50 [3] [µM] | AUC [4] | IC50 [4] [nM] | AUC ([5]; screen: GDSC drug entry 1036) | IC50 ([5]; screen: GDSC drug entry 1036) [µM] | AUC [6] | IC50 [6] [µM] | AUC [7] | IC50 [7] [nM] | AUC [5, 8] | IC50 [5, 8] [µM]
1 | NB6 (neuroblastoma, adherent) | 0.947 | > 20 | 0.874 | > 10200 | 0.976 | > 20 | 0.75 | 12.6 | 0.965 | > 10 | 0.693 | 4.97 | 0.956 | > 2000 | – | –
2 | NB7 (neuroblastoma, adherent) | 0.908 | > 20 | 0.53 | 777 | 0.927 | > 20 | 0.717 | 8.49 | 0.986 | > 10 | 0.766 | 7.67 | 0.926 | > 2000 | 0.883 | > 10
3 | NB10 (neuroblastoma, adherent) | 0.954 | > 20 | 0.957 | > 10200 | 0.988 | > 20 | 0.746 | 9.93 | 0.986 | > 10 | 0.772 | 7.56 | 0.934 | > 2000 | 0.987 | > 10
4 | NB13 (neuroblastoma, adherent) | 0.87 | 15.2 | 0.95 | > 10200 | 0.982 | > 20 | 0.332 | 0.726 | 0.801 | 4.23 | 0.729 | 5.12 | 0.94 | > 2000 | 0.982 | > 10
5 | NB69 (neuroblastoma, adherent) | 0.897 | 19.9 | 0.921 | > 10200 | 0.981 | > 20 | 0.758 | 9.93 | 0.99 | > 10 | 0.514 | 1.36 | 0.833 | 1100 | – | –
6 | NB(TU)1-10 (neuroblastoma, adherent) | 0.862 | 13.5 | 0.98 | > 10200 | 0.938 | > 20 | 0.559 | 2.83 | 0.97 | > 10 | 0.659 | 3.24 | 0.968 | > 2000 | 0.993 | > 10
7 | NB-4 (acute myeloid leukaemia, suspension) | 0.836 | 9.99 | 0.121 | 56 | 0.857 | 11.8 | 0.397 | 1.11 | 0.975 | > 10 | 0.439 | 0.877 | 0.991 | > 2000 | 0.984 | > 10
8 | NCI-H64 (small cell lung carcinoma, suspension) | 0.901 | 14 | 0.609 | 1180 | 0.993 | > 20 | 0.747 | 8.09 | 0.992 | > 10 | 0.906 | 14.5 | 0.996 | > 2000 | – | –
